Laboratory results from PubChem BioAssay AID445 (National Center for Advancing Translational Sciences (NCATS), 2006).
Screen size: about 110,000 compounds; about 40 (0.04%) were called active. This list was built around the results that the source calls inconclusive (neither active nor inactive); the mix of calls is not that of the screen. Calls follow the shape of the dose curve; as a rule, active = well fitted curve in the direction sought with a large enough effect in the signal ratio (not every such curve was filed as active); inconclusive = small, poorly fitted or top-dose-only effect, or a change in a side signal; inactive = flat fitted curve, though single readings scatter; the % refers to the signal ratio. A potency beside an inconclusive call is a rough fit, not a confirmed value.

Assay: IkB Signaling;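 as to IkBa stabilization activation: 0% = basal untreated cells and 100% = reference inhibitor full response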
Conditions: ABC-DLBCL IkBa-CBG/CBR dual luciferase ratio (green luciferase fused to IkBa over red control in OCI-Ly3 lymphoma cells), 4 h; IkBa stabilization activation: at 57.1 µM (top of the series), scaled: untreated 0%, proteasome inhibitor 100% unless noted
Outline: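 Curves were fitted separately to fusion (green), unfused (red) and ratio luminescence, then classed by r2, magnitude and activity. Cells: OCI-Ly3, 4 h compound plus doxycycline at 37C; 10 uM MG-132 defined full response.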
Potency is read from the fitted curve at half-maximal effect.

Row | Structure (SMILES) | IkBa stabilization activation | Potency
1 | Cc1ccc(-c2n[nH]c(=O)c3ccccc23)cc1N | inactive | 
2 | CCOc1cc(N2CCOCC2)c(OCC)cc1NC(=O)Cn1[nH]c(=O)c2ccccc2c1=O | inactive | 
3 | COc1cc(Cn2c(=O)sc3ccccc32)ccc1OCCC(C)C | inconclusive: 0.734% [signal inhibitor] | 
4 | CC(C)c1ccc2c(c1)-c1ccccc1S(=O)(=O)N2CC(=O)N1CCCCC1 | inconclusive: -1.44% [signal inhibitor] | 
5 | O=C(CSc1ncc(-c2ccccc2)[nH]1)Nc1cccc(C(F)(F)F)c1 | inconclusive: 3.13% [signal inhibitor] | 
6 | O=C1c2ccccc2C(=O)N1CC#CCN1CCN(C2CCCCC2)CC1 | inconclusive: 4.46% [signal inhibitor] | 
7 | O=C(c1ccco1)N1c2ccccc2Sc2ccccc21 | inconclusive: 7.25% [signal inhibitor] | 
8 | Cc1ccccc1-c1nc(CS(=O)(=O)CC(=O)Nc2cc(Cl)cc(Cl)c2)c(C)o1 | inconclusive: 5.8% [signal inhibitor] | 
9 | CCN(CC)c1ccc(NC(=O)c2ccco2)cc1 | inactive | 
10 | CCn1nc(C)c(CCN(C)C(=O)Nc2cc(C)cc(C)c2)c1C | inactive | 
11 | COc1ccc2nc(NC(=O)CSC3=NCCS3)sc2c1 | inconclusive: 1.7% [signal inhibitor] | 
12 | Nc1nonc1C(=O)NCCNCc1ccc(Cl)c(Cl)c1 | inactive | 
13 | COc1ccccc1CNC(=O)Cn1c(=O)oc2cc(S(=O)(=O)NCc3ccccc3)ccc21 | inconclusive: 1.51% [signal inhibitor] | 
14 | CC1=C(C(=O)Nc2ccc(Cl)cc2)C(C(C)C)n2nc(SCc3ccc(Cl)cc3)nc2N1 (stereo unspecified) | inconclusive: 3.18% [signal inhibitor] | 
15 | O=C(Nc1cccc(-c2nnc(-c3ccccc3)o2)c1)c1ccc(Br)o1 | inconclusive: -2.02% [signal inhibitor] | 
16 | COc1ccc(OC)c(CCNC(=O)C2=C(C)C(=O)OC23CCC(C)CC3)c1 (stereo unspecified) | inconclusive: 0.985% [signal inhibitor] | 
17 | O=C(Cn1nc(C(F)(F)F)c2c1CCC2)Nc1ccc(Cl)cc1 | inconclusive: 14.4% [signal inhibitor] | 
18 | CCN(CC)c1ccc2cc(-c3nc4ccccc4[nH]3)c(=O)oc2c1 | inactive | 
19 | CCC(=O)OCC(=O)[C@@]1(OC(=O)CC)[C@H](C)C[C@@H]2[C@H]3CCC4=CC(=O)C=C[C@]4(C)[C@]3(Cl)[C@@H](O)C[C@@]21C | inconclusive: 14.8% [signal activator] [at 25.6 µM, scaled: untreated 0%, proteasome inhibitor 100%] | 
20 | Fc1ccc(-c2cc(C(F)(F)F)nc(N3CCCCC3)n2)cc1 | inconclusive: 3.81% [signal activator] | 
21 | CC(=O)NCCNc1ncnc2ccc(-c3ccoc3)cc12 | inactive: -1.01% [at 11.4 µM, scaled: untreated 0%, proteasome inhibitor 100%] | 
22 | COc1ccc(Oc2ncc3nc(-c4cn(C)c5ccccc45)c(=O)n(C4CC4)c3n2)cc1 | inactive: -0.711% [at 11.4 µM, scaled: untreated 0%, proteasome inhibitor 100%] | 
23 | COc1ccc(NC(=O)Nc2ccc(OCC(=O)N3CCOCC3)cc2)cc1OC | inactive | 

Row | Structure (SMILES) | IkBa stabilization activation | Potency
24 | COc1cc(CN(C(=O)c2cccc(C)c2)c2ccccn2)cc(OC)c1OC | inconclusive: -0.902% [signal inhibitor] | 
25 | O=C(Nc1ccccc1-c1nc2ccccc2o1)c1ccc2c(c1)OCCO2 | inactive | 
26 | CC(c1ccco1)N(C(=O)COc1ccc(Cl)cc1)c1ccccn1 (stereo unspecified) | inactive | 
27 | CC(C)CCn1c(N)c(S(=O)(=O)c2cccs2)c2nc3ccccc3nc21 | inconclusive: 7.14% [signal inhibitor] | 
28 | COC(=O)C1=C(C)Nc2nnnn2C1c1ccc(Cl)cc1Cl (stereo unspecified) | inconclusive: 5.35% [signal inhibitor] | 
29 | CCN(C(=O)CN(C)S(=O)(=O)c1ccc2c(c1)n(C)c(=O)c(=O)n2C)c1cccc(C)c1 | inconclusive: 1.42% [signal inhibitor] | 
30 | Cc1ccnc(N2CCC(C(=O)Nc3cccc(C(F)(F)F)c3)CC2)n1 | inactive | 
31 | Cc1csc(SCC(=O)c2cc(C)n(Cc3cccs3)c2C)n1 | inconclusive: 5.46% [signal inhibitor] | 
32 | COc1ccc(NC(=O)c2cnc(SCC(=O)Nc3nc4ccc(C)cc4s3)n(C)c2=O)cc1 | inconclusive: 19.2% [signal inhibitor] | 
33 | Cc1cccc(C(=O)NCC(c2ccc3c(c2)OCO3)N2CCOCC2)c1 (stereo unspecified) | inactive | 
34 | Cc1ccc(-c2noc(CSc3nnc(-c4ccc(Cl)cc4)n3C)n2)cc1 | inconclusive: 0.524% [signal inhibitor] | 
35 | O=C(c1ccco1)c1cn(CCOc2ccc(Cl)cc2)c2ccccc12 |  | inconclusive: 15.8 µM [signal inhibitor]
36 | Cc1noc(NS(=O)(=O)c2ccc(N)cc2)c1C | inconclusive: 18.7% [signal activator] | 
37 | O=C(c1cccs1)N1CCCc2cc(NS(=O)(=O)c3ccc(Cl)cc3)ccc21 | inconclusive: 8.25% [signal inhibitor] | 
38 | O=C(NCCc1ccccc1)C(=O)NCC(c1cccnc1)N1CCN(c2ccc(F)cc2)CC1 (stereo unspecified) | inactive | 
39 | COc1ccccc1-c1cc(C(F)(F)F)nc(S(=O)(=O)CCCC(=O)Nc2cc(Br)ccc2O)n1 |  | inconclusive: 7.94 µM [signal inhibitor]
40 | O=C(c1ccccc1)c1nnc(-c2ccccc2F)o1 | inactive | 
41 | CNc1nnc(CSc2nc3ccccc3s2)s1 | inactive | 
42 | CC(=O)Nc1c(C(=O)Nc2cccc(C)c2)nnn1-c1ccc(C)cc1 | inactive | 
43 | O=C(NCc1ccco1)C(c1cccs1)N(C(=O)Cc1cccs1)c1ccccc1 (stereo unspecified) | inconclusive: 2.39% [signal inhibitor] | 
44 | Cc1cc(N2CCN(C)CC2)nc2ccc(NC(=O)Nc3ccccc3)cc12 | inactive | 
45 | CCc1ccc(NC(=O)CC(c2ccc(C)cc2)N2Cc3ccccc3C2=O)cc1 (stereo unspecified) | inconclusive: 0.375% [signal inhibitor] | 
46 | O=C(CSc1nc(-c2ccccc2)nc2c1CCCC2)N1CCOCC1 | inactive | 
